Measured values reported in patent US8067379B2, “Sulfur compounds as inhibitors of hepatitis C virus NS3 serine protease” (Schering Corporation, priority 2004, dated 2011).

What follows are compounds tested against Recombinant heterodimeric HCV NS3/NS4A protease (strain 1a) (Hepatitis C virus genotype 1a, UniProt P27958) (assay: Spectrophotometric assay for HCV serine protease inhibitory activity (chromogenic ester substrates)). Conditions: Table 3, sulfone compounds, rows without Prep. Ex. number; read-out: Ki* (numeric value, unlabelled structures at end of sulfone table, column without head).
Type: biochemical
Description: Assay for HCV Protease Inhibitory Activity:
Spectrophotometric Assay: Spectrophotometric assay for the HCV serine protease can be performed on the inventive compounds by following the procedure described by R. Zhang et al, Analytical Biochemistry, 270 (1999) 268-275, the disclosure of which is incorporated herein by reference. The assay based on the proteolysis of chromogenic ester substrates is suitable for the continuous monitoring of HCV NS3 protease activity. The substrates are derived from the P side of the NS5A-NS5B junction sequence (Ac-DTEDWX(Nva), where X=A or P) whose C-terminal carboxyl groups are esterified with one of four different chromophoric alcohols (3- or 4-nitrophenol, 7-hydroxy-4-methyl-coumarin, or 4-phenylazophenol).
Protein concentrations are determined by the Biorad dye method using recombinant HCV protease standards previously quantified by amino acid analysis. Prior to assay initiation, the enzyme storage buffer (50 mM sodium phosphate pH 8.0, 300 mM NaCl, 10% glycerol, 0.05% lauryl maltoside and 10 mM DTT) is exchanged for the assay buffer (25 mM MOPS pH 6.5, 300 mM NaCl, 10% glycerol, 0.05% lauryl maltoside, 5 μM EDTA and 5 μM DTT) utilizing a Biorad Bio-Spin P-6 prepacked column.
Protease Assay: HCV protease assays are performed at 30° C. using a 200 μl reaction mix in a 96-well microtiter plate. Assay buffer conditions (25 mM MOPS pH 6.5, 300 mM NaCl, 10% glycerol, 0.05% lauryl maltoside, 5 μM EDTA and 5 μM DTT) are optimized for the NS3/NS4A heterodimer (D. L. Sali et al, ibid.)). […] Fifty μls of prewarmed protease (12 nM, 30° C.) in assay buffer, is then used to initiate the reaction (final volume 200 μl). The plates are monitored over the length of the assay (60 minutes) for change in absorbance at the appropriate wavelength (340 nm for 3-Np and HMC, 370 nm for PAP, and 400 nm for 4-Np) using a Spectromax Plus microtiter plate reader equipped with a monochrometer (acceptable results can be obtained with plate readers that utilize cutoff filters). Proteolytic cleavage of the ester linkage between the Nva and the chromophore is monitored at the appropriate wavelength against a no enzyme blank as a control for non-enzymatic hydrolysis. The evaluation of substrate kinetic parameters is performed over a 30-fold substrate concentration range (˜6-200 μM). Initial velocities are determined using linear regression and kinetic constants are obtained by fitting the data to the Michaelis-Menten equation using non-linear regression analysis (Mac Curve Fit 1.1, K. Raner). Turnover numbers (kcat) are calculated assuming the enzyme is fully active.
Evaluation of Inhibitors and Inactivators: The inhibition constants (Ki) for the competitive inhibitors Ac-D-(D-Gla)-L-l-(Cha)-C-OH (27), Ac-DTEDWA(Nva)-OH and Ac-DTEDVVP(Nva)-OH are determined experimentally at fixed concentrations of enzyme and substrate by plotting vo/vi vs. inhibitor concentration ([l]o) according to the rearranged Michaelis-Menten equation for competitive inhibition kinetics: vo/vi=1+[l]o/(Ki (1+[S]o/Km)), where vo is the uninhibited initial velocity, vi is the initial velocity in the presence of inhibitor at any given inhibitor concentration ([l]o) and [S]o is the substrate concentration used.
`C#CCCC(NC(=O)[C@@H]1[C@@H]2[C@H](CN1C(=O)[C@@H](NC(=O)NC1(CS(=O)(=O)C(C)(C)C)CCCCC1)C(C)(C)C)C2(C)C)C(=O)C(=O)NC1CC1C` (some centres unmarked) was tested, and the Ki was 18 nM.
With `C#CCCC(NC(=O)[C@@H]1[C@@H]2[C@H](CN1C(=O)[C@@H](NC(=O)NC1(CS(=O)(=O)C(C)(C)CC)CCCCC1)C1(C)CCCCC1)C2(C)C)C(=O)C(=O)NC1CC1` (some centres unmarked) the Ki was 7 nM.
`C#CCCC(NC(=O)[C@@H]1[C@@H]2[C@H](CN1C(=O)[C@@H](NC(=O)NC1(CS(=O)(=O)C(C)(C)CC)CCCCC1)C1(C)CCCCC1)C2(C)C)C(=O)C(=O)NCC1CC1` (some centres unmarked) gave a Ki of 10 nM.
Compound `C=CCNC(=O)C(=O)C(CC1CC1)NC(=O)[C@@H]1[C@@H]2[C@H](CN1C(=O)[C@@H](NC(=O)NC1(CS(=O)(=O)C(C)(C)CC)CCCCC1)C1(C)CCCCC1)C2(C)C` (some centres unmarked) has a Ki of 14 nM.
Work on `C#CCCC(NC(=O)[C@@H]1[C@@H]2[C@H](CN1C(=O)[C@@H](NC(=O)NC1(CS(=O)(=O)C(C)(C)C)CCCCC1)C1(C)CCCCC1)C2(C)C)C(=O)C(=O)NCCC` (some centres unmarked) yielded a Ki of 4 nM.
Compound `C=CCNC(=O)C(=O)C(CCCC)NC(=O)[C@@H]1[C@@H]2[C@H](CN1C(=O)[C@@H](NC(=O)NC1(CS(=O)(=O)C(C)(C)C)CCCCC1)C1CCCCC1)C2(Cl)Cl` (some centres unmarked) has a Ki of 5 nM.
Work on `C=CCNC(=O)C(=O)C(CC1CCC1)NC(=O)[C@@H]1[C@@H]2[C@H](CN1C(=O)[C@@H](NC(=O)NC1(CS(=O)(=O)C(C)(C)CC)CCCCC1)C1(C)CCCCC1)C2(C)C` (some centres unmarked) yielded a Ki of 37 nM.
Compound `C=CCNC(=O)C(=O)C(CC1CC1)NC(=O)[C@@H]1[C@@H]2[C@H](CN1C(=O)[C@@H](NC(=O)NC1(CS(=O)(=O)C(C)(C)C)CCCCC1)C1CCCCC1)C2(Cl)Cl` (some centres unmarked) has a Ki of 18 nM.
Work on `CCCCC(NC(=O)[C@@H]1[C@@H]2[C@H](CN1C(=O)[C@@H](NC(=O)NC1(CS(=O)(=O)C(C)(C)C)CCCCC1)C(C)(C)C)C2(C)C)C(=O)C(=O)NCCCl` (some centres unmarked) yielded a Ki of 27 nM.
For `C#CCNC(=O)C(=O)C(CC1CCC1)NC(=O)[C@@H]1[C@@H]2[C@H](CN1C(=O)[C@@H](NC(=O)NC1(CS(=O)(=O)C(C)(C)CC)CCCCC1)C1(C)CCCCC1)C2(C)C` (some centres unmarked), the Ki was 34 nM.
In the case of `C#CCCNC(=O)C(=O)C(CC1CCC1)NC(=O)[C@@H]1[C@@H]2[C@H](CN1C(=O)[C@@H](NC(=O)NC1(CS(=O)(=O)C(C)(C)CC)CCCCC1)C1(C)CCCCC1)C2(C)C` (some centres unmarked), the Ki is reported as 48 nM.
With `CCC(C)(C)S(=O)(=O)CC1(NC(=O)N[C@H](C(=O)N2C[C@H]3[C@@H]([C@H]2C(=O)NC(CC2CCC2)C(=O)C(=O)NCCC(=O)OC(C)(C)C)C3(C)C)C2(C)CCCCC2)CCCCC1` (some centres unmarked) the Ki was 52 nM.
With `CCC(C)(C)S(=O)(=O)CC1(NC(=O)N[C@H](C(=O)N2C[C@H]3[C@@H]([C@H]2C(=O)NC(CC2CCC2)C(=O)C(=O)NC2CC2)C3(C)C)C2(C)CCCCC2)CCCCC1` (some centres unmarked) the Ki was 54 nM.
`C=CCNC(=O)C(=O)C(CC1CC1)NC(=O)[C@@H]1[C@@H]2[C@H](CN1C(=O)[C@@H](NC(=O)NC1(CS(=O)(=O)C(C)(C)C)CCCCC1)C(C)(C)C)C2(Cl)Cl` (some centres unmarked) showed a Ki of 9 nM.
`C=CCNC(=O)C(=O)C(CCCC)NC(=O)[C@@H]1[C@@H]2[C@H](CN1C(=O)[C@@H](NC(=O)NC1(CS(=O)(=O)C(C)(C)C)CCCCC1)C(C)(C)C)C2(Cl)Cl` (some centres unmarked) gave a Ki of 8 nM.
`C#CCCC(NC(=O)[C@@H]1[C@@H]2[C@H](CN1C(=O)[C@@H](NC(=O)NC1(CS(=O)(=O)C(C)(C)C)CCCCC1)C1(C)CCCCC1)C2(C)C)C(=O)C(=O)NCC=C` (some centres unmarked) showed a Ki of 5 nM.
With `CC(C)(C)OC(=O)CCNC(=O)C(=O)C(CC1CC1)NC(=O)[C@@H]1[C@@H]2[C@H](CN1C(=O)[C@@H](NC(=O)NC1(CS(=O)(=O)C(C)(C)C)CCCCC1)C1(C)CCCCC1)C2(C)C` (some centres unmarked) the Ki was 17 nM.
With `CCC(C)(C)S(=O)(=O)CC1(NC(=O)N[C@H](C(=O)N2C[C@H]3[C@@H]([C@H]2C(=O)NC(CC2CC2)C(=O)C(=O)NCCC(=O)OC(C)(C)C)C3(C)C)C2(C)CCCCC2)CCCCC1` (some centres unmarked) the Ki was 19 nM.
For `C#CCCNC(=O)C(=O)C(CC1CC1)NC(=O)[C@@H]1[C@@H]2[C@H](CN1C(=O)[C@@H](NC(=O)NC1(CS(=O)(=O)C(C)(C)C)CCCCC1)C1(C)CCCCC1)C2(C)C` (some centres unmarked), the Ki was 17 nM.
Work on `C#CCCNC(=O)C(=O)C(CC1CC1)NC(=O)[C@@H]1[C@@H]2[C@H](CN1C(=O)[C@@H](NC(=O)NC1(CS(=O)(=O)C(C)(C)CC)CCCCC1)C1(C)CCCCC1)C2(C)C` (some centres unmarked) yielded a Ki of 20 nM.
`C#CCCC(NC(=O)[C@@H]1[C@@H]2[C@H](CN1C(=O)[C@@H](NC(=O)NC1(CS(=O)(=O)C(C)(C)C)CCCCC1)C1(C)CCCCC1)C2(C)C)C(=O)C(=O)NC1CCC1` (some centres unmarked) was tested, and the Ki was 10 nM.
With `C#CCNC(=O)C(=O)C(CC1CC1)NC(=O)[C@@H]1[C@@H]2[C@H](CN1C(=O)[C@@H](NC(=O)NC1(CS(=O)(=O)C(C)(C)C)CCCCC1)C1(C)CCCCC1)C2(C)C` (some centres unmarked) the Ki was 8 nM.
With `C#CCNC(=O)C(=O)C(CC1CC1)NC(=O)[C@@H]1[C@@H]2[C@H](CN1C(=O)[C@@H](NC(=O)NC1(CS(=O)(=O)C(C)(C)CC)CCCCC1)C1(C)CCCCC1)C2(C)C` (some centres unmarked) the Ki was 17 nM.
`CC1([C@H](NC(=O)NC2(CS(=O)(=O)C(C)(C)C)CCCCC2)C(=O)N2C[C@H]3[C@@H]([C@H]2C(=O)NC(CC2CC2)C(=O)C(=O)NC2CC2)C3(C)C)CCCCC1` (some centres unmarked) gave a Ki of 12 nM.
For `CCC(C)(C)S(=O)(=O)CC1(NC(=O)N[C@H](C(=O)N2C[C@H]3[C@@H]([C@H]2C(=O)NC(CC2CC2)C(=O)C(=O)NC2CC2)C3(C)C)C2(C)CCCCC2)CCCCC1` (some centres unmarked), the Ki was 13 nM.
In the case of `C#CCCC(NC(=O)[C@@H]1[C@H]2CC(C)(C)O[C@H]2CN1C(=O)[C@@H](NC(=O)NC1(CS(=O)(=O)C(C)(C)C)CCCCC1)C1CCCCC1)C(=O)C(=O)NCC=C` (some centres unmarked), the Ki is reported as 23 nM.
`C=CCNC(=O)C(=O)C(CC1CC1)NC(=O)[C@@H]1[C@@H]2[C@H](CN1C(=O)[C@@H](NC(=O)NC1(CS(=O)(=O)C(C)(C)C)CCCCC1)C1(C)CCCC1)C2(C)C` (some centres unmarked) was tested, and the Ki was 12 nM.
Work on `C#CCCC(NC(=O)[C@@H]1[C@@H]2[C@H](CN1C(=O)[C@@H](NC(=O)NC1(CS(=O)(=O)C(C)(C)C)CCCCC1)C1(C)CCCC1)C2(C)C)C(=O)C(=O)NCC=C` (some centres unmarked) yielded a Ki of 2.4 nM.
`C#CCCC(NC(=O)[C@@H]1[C@@H]2[C@H](CN1C(=O)[C@@H](NC(=O)NC1(CS(=O)(=O)C(C)(C)C)CCCCC1)C1(C)CCCCC1)C2(C)C)C(=O)C(=O)NCC1CC1` (some centres unmarked) was tested, and the Ki was 4 nM.
With `C=CCNC(=O)C(=O)C(CCC(F)F)NC(=O)[C@@H]1[C@@H]2[C@H](CN1C(=O)[C@@H](NC(=O)NC1(CS(=O)(=O)C(C)(C)C)CCCCC1)C1(C)CCCCC1)C2(C)C` (some centres unmarked) the Ki was 6 nM.
With `C#CCCC(NC(=O)[C@@H]1[C@@H]2[C@H](CN1C(=O)[C@@H](NC(=O)NC1(CS(=O)(=O)C(C)(C)C)CCCCC1)C1(C)CCCCC1)C2(C)C)C(=O)C(=O)NC1CC1` (some centres unmarked) the Ki was 6 nM.
`C=CCNC(=O)C(=O)C(CCC)NC(=O)[C@@H]1[C@@H]2[C@H](CN1C(=O)[C@@H](NC(=O)NC1(CS(=O)(=O)C(C)(C)C)CCCCC1)C1(C)CCCC1)C2(C)C` (some centres unmarked) showed a Ki of 22 nM.
Compound `C=CCNC(=O)C(=O)C(CCCC)NC(=O)[C@@H]1[C@@H]2[C@H](CN1C(=O)[C@@H](NC(=O)NC1(CS(=O)(=O)C(C)(C)C)CCCCC1)C1(C)CCCC1)C2(C)C` (some centres unmarked) has a Ki of 22 nM.
For `C=CCNC(=O)C(=O)C(CC1CCC1)NC(=O)[C@@H]1[C@@H]2[C@H](CN1C(=O)[C@@H](NC(=O)NC1(CS(=O)(=O)C(C)(C)C)CCCCC1)C1(C)CCCC1)C2(C)C` (some centres unmarked), the Ki was 34 nM.
For `C#CCCC(NC(=O)[C@@H]1[C@@H]2[C@H](CN1C(=O)[C@@H](NC(=O)NC1(CS(=O)(=O)C(C)(C)C)CCCCC1)C1(C)CCCC1)C2(C)C)C(=O)C(=O)NCCC` (some centres unmarked), the Ki was 13 nM.

Same assay, conditions: Table 3, sulfone compounds, rows without Prep. Ex. number; read-out: Ki* range (class symbol, unlabelled structures at end of sulfone table, column without head)
Work on `C=CCNC(=O)C(=O)C(CC1CC1)NC(=O)[C@@H]1[C@@H]2[C@H](CN1C(=O)[C@@H](NC(=O)NC1(CS(=O)(=O)C(C)(C)C)CCCCC1)C(C)(C)C)[C@H]2c1ccccc1` (some centres unmarked) yielded a Ki greater than 250 nM.

Same assay, conditions: Table 5; read-out: Ki*
In the case of `C#CCCC(NC(=O)[C@@H]1C2[C@H](CN1C(=O)[C@@H](NC(=O)NC1(CS(=O)(=O)C(C)(C)C)CCCCC1)C(C)(C)C)C2(C)C)C(=O)C(=O)NCC=C` (some centres unmarked), the Ki is reported as 2 nM.
`C#CCCC(NC(=O)[C@@H]1C2[C@H](CN1C(=O)[C@@H](NC(=O)NC1(CS(=O)(=O)C(C)(C)C)CCCCC1)C1CCCCC1)C2(C)C)C(=O)C(=O)NCC1CC1` (some centres unmarked) was tested, and the Ki was 19 nM.
